The values that follow come from ChEMBL document CHEMBL5506067, “Searching for Synthetic Opioid Rescue Agents: Identification of a Potent Opioid Agonist with Reduced Respiratory Depression” (J Med Chem, 2024).

The target in series [1] is T1, Delta-type opioid receptor (Homo sapiens, UniProt P41143). Briefly: Partial agonist activity at human DOR expressed in CHO-K1 cells assessed as decrease in cAMP level incubated for 30 mins in presence of forskolin by HitHunter cAMP analysis. The class given is functional, cell-based. In general terms: Cyclic AMP is a second messenger, typically raised through Gs and lowered through Gi signalling.
T1 sequence (P41143 whole entry): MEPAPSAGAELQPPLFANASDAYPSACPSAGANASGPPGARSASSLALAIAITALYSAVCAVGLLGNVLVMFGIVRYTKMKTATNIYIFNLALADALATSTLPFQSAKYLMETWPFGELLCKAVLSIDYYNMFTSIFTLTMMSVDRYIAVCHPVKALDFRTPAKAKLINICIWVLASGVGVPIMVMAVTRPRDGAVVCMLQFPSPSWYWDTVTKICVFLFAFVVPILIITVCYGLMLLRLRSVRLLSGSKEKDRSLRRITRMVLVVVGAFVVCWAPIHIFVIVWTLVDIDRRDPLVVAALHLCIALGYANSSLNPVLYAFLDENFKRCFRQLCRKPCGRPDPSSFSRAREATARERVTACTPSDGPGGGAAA

Series [2] addresses Kappa-type opioid receptor (Homo sapiens, UniProt P41145). Briefly: Agonist activity at human KOR expressed in CHO-K1 cells assessed as decrease in cAMP level incubated for 30 mins in presence of forskolin by HitHunter cAMP analysis. The class given is functional, cell-based.
Chain of UniProt P41145 (P41145 whole entry): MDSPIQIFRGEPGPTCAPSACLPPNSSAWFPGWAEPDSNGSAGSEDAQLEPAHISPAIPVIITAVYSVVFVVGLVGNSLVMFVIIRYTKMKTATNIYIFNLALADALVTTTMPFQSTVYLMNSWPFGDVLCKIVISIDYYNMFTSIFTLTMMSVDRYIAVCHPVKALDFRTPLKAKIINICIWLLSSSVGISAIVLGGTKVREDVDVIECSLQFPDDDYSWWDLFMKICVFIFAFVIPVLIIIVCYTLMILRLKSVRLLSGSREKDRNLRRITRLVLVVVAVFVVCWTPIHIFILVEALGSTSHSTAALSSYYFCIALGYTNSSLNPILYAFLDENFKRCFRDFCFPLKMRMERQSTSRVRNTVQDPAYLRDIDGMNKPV
Another series has as its target Nociceptin receptor (Homo sapiens, UniProt P41146). Briefly: Agonist activity at human NOR expressed in CHO-K1 cells assessed as decrease in cAMP level incubated for 30 mins in presence of forskolin by HitHunter cAMP analysis. The class given is functional, cell-based.
Chain of UniProt P41146 (P41146 whole entry): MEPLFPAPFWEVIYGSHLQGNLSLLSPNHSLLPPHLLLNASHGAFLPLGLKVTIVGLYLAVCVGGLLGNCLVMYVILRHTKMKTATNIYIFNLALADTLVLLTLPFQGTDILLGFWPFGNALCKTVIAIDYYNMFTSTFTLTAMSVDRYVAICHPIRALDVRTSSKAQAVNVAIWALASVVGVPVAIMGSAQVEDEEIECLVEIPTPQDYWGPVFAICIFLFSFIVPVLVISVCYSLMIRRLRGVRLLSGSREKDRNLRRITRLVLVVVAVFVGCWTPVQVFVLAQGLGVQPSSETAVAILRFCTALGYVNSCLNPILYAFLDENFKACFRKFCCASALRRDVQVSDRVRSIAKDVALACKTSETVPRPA
Series [3] can be described thus: Cmax in Sprague-Dawley rat brain at 10 mg/kg, ip measured upto 4 hrs by LC-MS/MS analysis. The class given is ADME, organism-based.
Series [4] can be described thus: Half-life in Sprague-Dawley rat brain at 10 mg/kg, ip measured upto 4 hrs by LC-MS/MS analysis. The series is classed as ADME, organism-based.
The target of series [5] is T1, Delta-type opioid receptor. Briefly: Agonist activity at DOR (unknown origin). The series is classed as functional.
Series [6] addresses 5-hydroxytryptamine receptor 2A (Homo sapiens, UniProt P28223). The series is described as follows: Inhibition of 5HT-2A (unknown origin).
Chain of UniProt P28223 (P28223 whole entry): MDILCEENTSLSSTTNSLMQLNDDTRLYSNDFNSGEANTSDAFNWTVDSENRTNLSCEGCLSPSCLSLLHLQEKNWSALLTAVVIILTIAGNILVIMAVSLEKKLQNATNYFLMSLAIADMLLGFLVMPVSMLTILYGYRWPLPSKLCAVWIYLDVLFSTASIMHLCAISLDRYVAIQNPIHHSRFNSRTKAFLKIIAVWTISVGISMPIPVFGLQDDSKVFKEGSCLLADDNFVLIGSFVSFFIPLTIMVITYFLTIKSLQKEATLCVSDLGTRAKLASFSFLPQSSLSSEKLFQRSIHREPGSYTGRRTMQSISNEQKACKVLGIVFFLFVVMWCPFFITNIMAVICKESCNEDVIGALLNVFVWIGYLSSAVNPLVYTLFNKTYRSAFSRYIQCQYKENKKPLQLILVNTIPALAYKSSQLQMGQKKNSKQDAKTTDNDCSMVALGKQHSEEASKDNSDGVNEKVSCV
The next series concerns the target T2, Androgen receptor (Homo sapiens, UniProt P10275).
T2 sequence (P10275 whole entry): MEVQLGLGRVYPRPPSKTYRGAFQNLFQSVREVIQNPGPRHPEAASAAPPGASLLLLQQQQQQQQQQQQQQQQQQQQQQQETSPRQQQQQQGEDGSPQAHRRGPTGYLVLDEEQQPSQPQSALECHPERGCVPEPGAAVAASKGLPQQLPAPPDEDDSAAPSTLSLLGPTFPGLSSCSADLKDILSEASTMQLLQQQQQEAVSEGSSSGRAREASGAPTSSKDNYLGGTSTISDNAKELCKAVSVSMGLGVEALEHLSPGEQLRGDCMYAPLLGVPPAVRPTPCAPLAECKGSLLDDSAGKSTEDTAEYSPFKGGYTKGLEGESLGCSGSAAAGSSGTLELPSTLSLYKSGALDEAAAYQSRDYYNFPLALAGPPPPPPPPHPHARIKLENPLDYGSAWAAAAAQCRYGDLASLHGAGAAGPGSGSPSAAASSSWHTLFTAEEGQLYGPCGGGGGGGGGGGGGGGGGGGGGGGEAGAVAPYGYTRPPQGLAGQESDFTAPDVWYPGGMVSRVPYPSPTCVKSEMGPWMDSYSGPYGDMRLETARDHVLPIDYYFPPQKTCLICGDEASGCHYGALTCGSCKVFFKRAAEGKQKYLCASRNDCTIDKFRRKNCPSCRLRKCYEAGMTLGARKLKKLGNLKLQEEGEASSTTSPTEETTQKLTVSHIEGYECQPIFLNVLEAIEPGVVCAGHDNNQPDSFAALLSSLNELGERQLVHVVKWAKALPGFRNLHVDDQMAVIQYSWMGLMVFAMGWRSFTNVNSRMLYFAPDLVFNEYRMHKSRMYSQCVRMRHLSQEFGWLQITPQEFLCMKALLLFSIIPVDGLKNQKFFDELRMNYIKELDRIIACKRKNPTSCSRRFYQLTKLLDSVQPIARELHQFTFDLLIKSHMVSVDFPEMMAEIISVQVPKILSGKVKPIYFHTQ
Briefly: Inhibition of androgen nuclear hormone receptor (unknown origin).

The target in series [7] is Prostaglandin G/H synthase 1 (Homo sapiens, UniProt P23219). Briefly: Inhibition of COX-1 (unknown origin).
Chain of UniProt P23219 (P23219 whole entry): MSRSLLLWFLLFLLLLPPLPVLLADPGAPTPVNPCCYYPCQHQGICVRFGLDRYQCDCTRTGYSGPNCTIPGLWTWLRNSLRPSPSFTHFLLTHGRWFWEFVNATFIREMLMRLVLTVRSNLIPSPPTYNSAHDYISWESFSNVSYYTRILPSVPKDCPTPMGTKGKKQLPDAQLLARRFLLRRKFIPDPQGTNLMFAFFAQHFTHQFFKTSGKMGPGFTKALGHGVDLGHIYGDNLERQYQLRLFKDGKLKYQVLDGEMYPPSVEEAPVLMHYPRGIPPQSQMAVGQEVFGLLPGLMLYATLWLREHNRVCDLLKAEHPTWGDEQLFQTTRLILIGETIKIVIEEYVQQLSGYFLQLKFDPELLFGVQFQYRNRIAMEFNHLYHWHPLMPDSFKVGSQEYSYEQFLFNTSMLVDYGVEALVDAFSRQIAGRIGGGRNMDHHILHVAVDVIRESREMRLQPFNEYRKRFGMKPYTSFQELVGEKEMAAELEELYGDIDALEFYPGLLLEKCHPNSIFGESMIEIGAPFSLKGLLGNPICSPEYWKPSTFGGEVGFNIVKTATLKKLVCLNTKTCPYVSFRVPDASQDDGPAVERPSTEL
The target in series [8] is Sodium-dependent dopamine transporter (Homo sapiens, UniProt Q01959). Briefly: Inhibition of dopamine transporter (unknown origin).
Chain of UniProt Q01959 (Q01959 whole entry): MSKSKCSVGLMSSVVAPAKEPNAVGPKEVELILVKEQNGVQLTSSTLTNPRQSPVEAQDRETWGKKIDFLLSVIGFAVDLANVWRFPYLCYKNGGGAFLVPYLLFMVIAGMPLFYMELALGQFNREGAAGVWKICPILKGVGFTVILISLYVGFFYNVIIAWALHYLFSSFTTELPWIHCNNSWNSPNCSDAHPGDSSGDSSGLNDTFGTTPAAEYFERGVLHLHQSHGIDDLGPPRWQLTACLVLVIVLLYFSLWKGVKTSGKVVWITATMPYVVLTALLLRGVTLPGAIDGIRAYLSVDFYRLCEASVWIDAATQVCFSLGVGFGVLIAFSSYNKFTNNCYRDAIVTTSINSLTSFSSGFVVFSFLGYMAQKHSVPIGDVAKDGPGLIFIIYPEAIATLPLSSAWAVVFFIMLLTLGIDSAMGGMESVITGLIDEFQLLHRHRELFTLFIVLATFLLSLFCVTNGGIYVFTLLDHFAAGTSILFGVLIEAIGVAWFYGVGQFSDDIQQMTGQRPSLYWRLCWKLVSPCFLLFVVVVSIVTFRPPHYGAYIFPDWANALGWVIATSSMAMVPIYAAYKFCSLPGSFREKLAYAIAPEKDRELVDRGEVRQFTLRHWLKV
Series [9] concerns the target Voltage-gated inwardly rectifying potassium channel KCNH2 (Homo sapiens, UniProt Q12809). Briefly: Inhibition of hERG. The class given is toxicity.
Chain of UniProt Q12809 (Q12809 whole entry): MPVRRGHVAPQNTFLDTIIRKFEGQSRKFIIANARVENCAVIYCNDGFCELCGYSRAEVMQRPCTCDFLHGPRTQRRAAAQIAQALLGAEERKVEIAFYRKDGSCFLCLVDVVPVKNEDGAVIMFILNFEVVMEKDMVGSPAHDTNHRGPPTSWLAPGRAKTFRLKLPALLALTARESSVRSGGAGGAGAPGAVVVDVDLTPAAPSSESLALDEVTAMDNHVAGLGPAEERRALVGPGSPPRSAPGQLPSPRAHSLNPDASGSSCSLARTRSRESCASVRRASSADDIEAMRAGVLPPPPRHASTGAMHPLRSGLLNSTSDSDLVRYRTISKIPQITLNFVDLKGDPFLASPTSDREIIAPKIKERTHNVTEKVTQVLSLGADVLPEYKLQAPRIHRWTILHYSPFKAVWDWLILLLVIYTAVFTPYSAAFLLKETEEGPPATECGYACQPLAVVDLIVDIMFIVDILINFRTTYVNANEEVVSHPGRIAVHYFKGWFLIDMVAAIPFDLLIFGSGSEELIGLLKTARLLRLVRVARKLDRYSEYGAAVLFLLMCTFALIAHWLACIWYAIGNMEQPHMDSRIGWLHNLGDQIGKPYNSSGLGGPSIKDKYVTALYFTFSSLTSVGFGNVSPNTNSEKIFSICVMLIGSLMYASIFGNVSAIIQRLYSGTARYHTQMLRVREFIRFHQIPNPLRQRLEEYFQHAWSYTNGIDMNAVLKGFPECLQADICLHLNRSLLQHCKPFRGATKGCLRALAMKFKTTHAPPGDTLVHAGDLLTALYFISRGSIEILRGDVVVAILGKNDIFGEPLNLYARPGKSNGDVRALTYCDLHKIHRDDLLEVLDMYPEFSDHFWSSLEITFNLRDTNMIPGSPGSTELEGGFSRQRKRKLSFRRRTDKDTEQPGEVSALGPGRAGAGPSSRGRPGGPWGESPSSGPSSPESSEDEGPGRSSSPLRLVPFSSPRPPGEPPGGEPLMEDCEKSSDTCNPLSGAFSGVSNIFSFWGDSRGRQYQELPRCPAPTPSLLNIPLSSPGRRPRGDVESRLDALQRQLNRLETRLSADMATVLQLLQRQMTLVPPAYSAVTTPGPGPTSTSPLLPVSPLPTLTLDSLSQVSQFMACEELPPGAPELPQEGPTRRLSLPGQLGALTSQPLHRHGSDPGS
Series [10] is described as follows: Toxicity in B6129F1 mouse assessed as analgesic tolerance at 2.5 mg/kg, ip administered twice daily on day 2 to 7 and measured on day 8. The conditions noted are these: in vivo, 168 h, time 7 day. The class given is organism-based.
The test system of a further series is Mus musculus. Briefly: Antinociceptive activity in ip dosed B6129F1 mouse on day 8. The series is classed as functional. The note with it: B6129F1, 192 h.

Some results are limits rather than exact numbers.

A word on the EC50: it is the concentration at which the effect is half-maximal. As a reminder, the Cmax is the highest concentration seen after dosing. As a reminder, the half-life is the time needed for the level to fall by half in the phase considered. The low end stands for rapid decline, the high end for slow decline. A word on the IC50: it is the point on the concentration scale where inhibition reaches its midpoint. A lower IC50 goes with inhibition by little substance. As a reminder, the ED50 is the midpoint of the dose-response relation. Low values mean an effect at a small dose, high ones a need for a large dose. In the case of `Oc1cccc(N2[C@@H]3CC[C@H]2CN(CCCc2ccccc2)C3)c1`, the EC50 in series [1] is 2.18 nM; in series [2], above 10000 nM; at Nociceptin receptor, above 10000 nM; in [5], 4.49 nM. Also, in [3], the concentration peaked (Cmax) at 3300 ng/g. In [4], the half-life was 1.35 h. The IC50 in [6] worked out at 1130 nM; against Androgen receptor, 8010 nM; in series [7], 480 nM; in series [8], 500 nM; in series [9] it was 4600 nM. Besides, the Activity entry in [10] is listed as “Toxic”. Moreover, it took a dose of 3.22 mg/kg to reach the 50% effect level in the series with Mus musculus (ED50).
